From the supplement of paper PMC5998384

Tests used:
HeLa Kyoto [1] = assay: thermal stability score vs G1/S (z-score of summed log2 fold changes over temperatures); higher = more thermally stable than in G1/S
HeLa Kyoto [2] = assay: melting temperature (median over replicates), in situ; higher = more thermally stable
HeLa Kyoto [3] = assay: solubility change mitosis vs G1/S (difference of NP-40 vs SDS log2 ratios) (log2 ratio difference); higher = more soluble in mitosis
HeLa Kyoto [4] = assay: solubility in G1/S (NP-40 vs SDS abundance) (log2 ratio); higher = more soluble; conditions: cell cycle stage: G1/S
[5] = cell cycle stage: early G1 (4.5 h after nocodazole release)
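Wherever melting temperature (median over replicates), in situ is given: HeLa Kyoto cells synchronized by double thymidine or nocodazole block, proteins quantified by TMT10plex mass spectrometry, three independent biological replicates.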
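Wherever solubility change mitosis vs G1/S (difference of NP-40 vs SDS log2 ratios) is given: synchronized HeLa Kyoto cells (double thymidine block for G1/S, nocodazole release for mitosis), protein amounts in NP-40 versus SDS lysates quantified by mass spectrometry, three biological replicates.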
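Wherever solubility in G1/S (NP-40 vs SDS abundance) is given: HeLa Kyoto cells arrested at G1/S by double thymidine block, proteins quantified by TMT10plex mass spectrometry in mild NP-40 versus SDS extracts, three biological replicates.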
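Wherever thermal stability score vs G1/S (z-score of summed log2 fold changes over temperatures) is given: synchronized HeLa Kyoto cells, proteins quantified by TMT10plex mass spectrometry, three biological replicates, mitosis taken 0.5 h after nocodazole release, G1/S directly after double thymidine block.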

| Substance | thermal stability score (HeLa Kyoto [1]; [5]) | thermal stability score (HeLa Kyoto [1]; cell cycle stage: mitosis) | melting temperature (HeLa Kyoto [2]; cell cycle stage: G1/S) [°C] | melting temperature (HeLa Kyoto [2]; cell cycle stage: mitosis) [°C] | solubility change mitosis (log2) (HeLa Kyoto [3]) | solubility in G1/S (log2) (HeLa Kyoto [4]) |
| --- | --- | --- | --- | --- | --- | --- |
| TIMP2 (sequence left out) | 2.67 | 2.02 | 55.1 | 55.9 | -0.00508 | 0.27 |
| EIF2S3 (sequence left out) | -0.232 | -1.62 | 53.3 | 53.5 | -0.0876 | 0.114 |
| MED12 | – | – | 48.7 | 49 | -0.0564 | -0.0957 |
| ITGA5 (sequence left out) | -3.86 | -3.3 | 55.6 | 54.4 | -0.0814 | 0.172 |
| ANKRD27 (sequence left out) | – | – | – | – | 0.0809 | -0.0142 |
| PSMC3 (sequence left out) | 1.39 | 0.471 | 52.9 | 53 | -0.0533 | 0.473 |
| NDUFS3 (sequence left out) | 0.7 | -0.138 | 51.9 | 51.7 | -0.0807 | 0.256 |
| PTPRF (sequence left out) | -3.16 | -3.72 | 50.5 | 49.6 | -0.117 | 0.0295 |
| OPTN (sequence left out) | -0.013 | 0.588 | 49.5 | 49.5 | -0.0251 | 0.435 |
| ROR2 (sequence left out) | -0.94 | -1.07 | 51.1 | 50.9 | -0.0835 | -0.0802 |
| MST1R (sequence left out) | 0.464 | 0.663 | 51.8 | 51 | -0.232 | 0.0545 |
| [skipping about 600 residues]ILAKKKVMAPSKIKVKESSTKPDKKVSVPSGQIGGPIALPSDHQTGGLSIGASSRELPSQASGGLANPPPVNLEDSLDEDLIRNPASSVEAVSKELAALNSRAAGNSEFTLPAPSKAPAEKVGGVLCTEEKRNFAKPSPSAPPPASSLQSPLNFLAEQALALGQSSQEKKPESSGYKELSCQAPLNKGLPEVHQSKAKHHSLPRTSHGPQVAVPVPGPQVKVFHAGTQQQKNFTPPSPFANKLQGPKASPTQCHRSLLQLVKTAAKGQGFHPSAPATSGGLSASSSSSHKTPASSSSALSHPAKPHSVSSAGSSYKNNPFASSISKHGVSSGSSSSGGTPVQSSVSGSLVPGIQPPSVGQATSRPVPSSAGKKMPVSQKLTLVAPPGGPNGDSSGGTQGVAKLLTSPSLKPSAVSSVTSSTSLSKGASGTVLLAGSSLMASPYKSSSPKLSGAMSSNSLGIITPVPIPVHVLSFSADSSAKAGVSKDAIVTGPAPGSFHHGLGHSLLAGLHSSPPHAAPLPHAAVPTHIPQSLPGASQLHGKGPAVPRKL [UBN1] | – | – | – | – | 0.374 | -0.442 |
| CFL1 (sequence left out) | -0.213 | -3.48 | 54.1 | 53.6 | 0.0376 | 0.193 |
| KRAS (sequence left out) | -0.721 | -0.892 | 54.7 | 58.1 | -0.0544 | -0.0783 |
| ATP5B (sequence left out) | -1.49 | -1.56 | 57.9 | 58.7 | -0.0404 | 0.272 |
| GSN (sequence left out) | -0.349 | -1.14 | – | – | -0.028 | -0.463 |
| PSMD11 (sequence left out) | 2.13 | 2.02 | 51.8 | 51.9 | -0.0883 | 0.28 |
| ISG15 (sequence left out) | 0.389 | 0.493 | 49.3 | 49.9 | 0.0549 | 0.365 |
| EPHA2 (sequence left out) | -1.61 | -0.979 | 50.8 | 49.8 | -0.116 | 0.0373 |
| LIG1 (sequence left out) | 2.64 | 4.21 | 48.7 | 49.6 | -0.123 | 0.0711 |
| NFS1 (sequence left out) | 0.362 | 0.272 | 53.6 | 53.5 | -0.0733 | 0.0847 |
| TRIM5 (sequence left out) | 0.322 | 0.0791 | – | – | -0.0572 | 0.013 |
| CAMK2D (sequence left out) | 0.158 | 0.291 | 50 | 48.8 | 0.243 | -0.271 |
| MATANSIIVLDDDDEDEAAAQPGPSHPLPNAASPGAEAPSSSEPHGARGSSSSGGKKCYKLENEKLFEEFLELCKMQTADHPEVVPFLYNRQQRAHSLFLASAEFCNILSRVLSRARSRPAKLYVYINELCTVLKAHSAKKKLNLAPAATTSNEPSGNNPPTHLSLDPTNAENTASQ[skipping about 200 residues]ERKKRRARLQGTSSHSADTPEASLDSGEGPSGMASQGCPSASRAETDDEDDEESDEEEEEEEEEEEEEATDSEEEEDLEQMQEGQEDDEEEDEEEEAAAGKDGDKSPMSSLQISNEKNLEPGKQISRSSGEQQNKGRIVSPSLLSEEPLAPSSIDAESNGEQPEELTLEEESPVSQLFELEIEALPLDTPSSVETDISSSRKQSEEPFTTVLENGAGMVSSTSFNGGVSPHNWGDSGPPCKKSRKEKKQTGSGPLGNSYVERQRSVHEKNGKKICTLPSPPSPLASLAPVADSSTRVDSPSHGLVTSSLCIPSPARLSQTPHSQPPRPGTCKTSVATQCDPEEIIVLSDSD [DAXX] | 0.889 | 1.59 | 46.6 | 50.2 | 0.0708 | 0.0801 |
| CREB1 (sequence left out) | -0.817 | -2.32 | 54 | 54.1 | – | – |
| MAAPVVAPPGVVVSRANKRSGAGPGGSGGGGARGAEEEPPPPLQAVLVADSFDRRFFPISKDQPRVLLPLANVALIDYTLEFLTATGVQETFVFCCWKAAQIKEHLLKSKWCRPTSLNVVRIITSELYRSLGDVLRDVDAKALVRSDFLLVYGDVISNINITRALEEHRLRRKLEKNVSVMTMIFKESSPSHPTRCHEDNVVVAVDSTTNRVLHFQKTQGLRRFAFPLSLFQGSSDGVEVRYDLLDCHISICSPQVAQLFTDNFDYQTRDDFVR[skipping about 20 residues]VSNLHMYSAVCADVIRRWVYPLTPEANFTDSTTQSCTHSRHNIYRGPEVSLGHGSILEENVLLGSGTVIGSNCFITNSVIGPGCHIGDNVVLDQTYLWQGVRVAAGAQIHQSLLCDNAEVKERVTLKPRSVLTSQVVVGPNITLPEGSVISLHPPDAEEDEDDGEFSDDSGADQEKDKVKMKGYNPAEVGAAGKGYLWKAAGMNMEEEEELQQNLWGLKINMEEESESESEQSMDSEEPDSRGGSPQMDDIKVFQNEVLGTLQRGKEENISCDNLVLEINSLKYAYNISLKEVMQVLSHVVLEFPLQQMDSPLDSSRYCALLLPLLKAWSPVFRNYIKRAADHLEALAAIEDFFLEHEALGISMAKVLMAFYQLEILAEETILSWFSQRDTTDKGQQLRKNQQLQRFIQWLKEAEEESSEDD [EIF2B5] | -1.03 | -0.441 | 52 | 51.4 | -0.0413 | -0.261 |
| IQGAP1 (sequence left out) | -1.44 | 1.51 | 50.9 | 50.1 | -0.248 | 0.0423 |
| PSMB4 (sequence left out) | -2.25 | -3.7 | 63.5 | 60.9 | -0.139 | 0.221 |
